# Experimental data taken from article PMC7819943, “Rice protein-binding microarrays: a tool to detect cis-acting elements near promoter regions in rice”.
# Some of the results follow.
# Target: T1, OsWOX13 (Oryza sativa, UniProt Q5QMM3 1-267)
# T1 sequence: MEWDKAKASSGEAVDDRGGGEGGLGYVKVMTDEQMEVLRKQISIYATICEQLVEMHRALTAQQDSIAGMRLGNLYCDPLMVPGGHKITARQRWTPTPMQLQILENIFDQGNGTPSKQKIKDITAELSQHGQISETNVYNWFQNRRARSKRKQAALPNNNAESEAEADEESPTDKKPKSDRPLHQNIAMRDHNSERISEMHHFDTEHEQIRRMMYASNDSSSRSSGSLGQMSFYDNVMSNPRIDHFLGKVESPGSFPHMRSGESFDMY
# Assay: protein-binding microarray (RPBM); PBS, 2% BSA, 51.3 ng/ul salmon testes DNA, 50 uM zinc acetate, 200 nM TF, 25 C, 1 h; high values mean tight binding
# Conditions: protein: recombinant; tags: N-terminal polyhistidine and DsRed monomer fusion (pET32a); label: CyDye5-dUTP incorporated in the synthesized complementary strand; 3' TTTTT single-stranded linker to array surface; dsDNA, one strand shown
# Summary of the method: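 In PBS with 2% BSA, salmon testes DNA and 50 µM zinc acetate, 200 nM protein was incubated on a custom Agilent array at 25 °C for 1 h and then washed off. The array had been made double-stranded by primer extension with Cy5-dUTP and blocked with 2% BSA. The proteins were transcription factors fused N-terminally to polyhistidine and DsRed, expressed in E. coli BL21-CodonPlus and purified on Ni–NTA. The binding signal is per-feature fluorescence intensity (arbitrary units) from an Axon 4000B scanner.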
row,Sequence,binding signal
1,ATTACTAATAATTGCTATATGTTAATCTTTAGATACTTGACGGAGTCACCTAGTGCAG,15100 fluorescence intensity (a.u.)
2,ACATTTTAATGGAAATAAACATTTACTTATTTCTCATGTGCGGAGTCACCTAGTGCAG,7630 fluorescence intensity (a.u.)
3,TTATACAGTTTACATGTAAATCACGAGAAGAATCTTTTGACGGAGTCACCTAGTGCAG,4050 fluorescence intensity (a.u.)
4,GTAACAATCACATTACAAATCAGAGGCAACAGATTACAAGCGGAGTCACCTAGTGCAG,19800 fluorescence intensity (a.u.)
5,TTACAAATGATACCATAAATTAAATAACACATCGATGTCTCGGAGTCACCTAGTGCAG,3280 fluorescence intensity (a.u.)
6,CAGATTGTTATAATTACTCCTGTTGTTGTGAAGAGACCACCGGAGTCACCTAGTGCAG,26000 fluorescence intensity (a.u.)
7,AATGAAGTATAATCAATTACTATGATGTTAATTATACTCCCGGAGTCACCTAGTGCAG,24200 fluorescence intensity (a.u.)
8,TGCCATAAATTGTTTGTCATGGTATTGTAAAAGTCACTCTCGGAGTCACCTAGTGCAG,8610 fluorescence intensity (a.u.)
9,CGTTGACATGAAGTTTTATTCAAGAGGCTCCATATTTTCACGGAGTCACCTAGTGCAG,10400 fluorescence intensity (a.u.)
10,GTAATTAAAACTCAATGAATCACATGTTATTACCACCTCACGGAGTCACCTAGTGCAG,3970 fluorescence intensity (a.u.)
11,AGAGACAGCGAATCAATTAGCCAATGCTAATAATTTATAACGGAGTCACCTAGTGCAG,8160 fluorescence intensity (a.u.)
12,TATTGATTTCCACTATTCCCTTTGTAATCTGTGATTTCCACGGAGTCACCTAGTGCAG,9240 fluorescence intensity (a.u.)
13,GAGAGATTGATGCATGAGCCGGCCAGGTCCAGCCAGATCGCGGAGTCACCTAGTGCAG,28000 fluorescence intensity (a.u.)
14,ATTCGATGTGATAATTTTGTTTCGGAACTAAACAACCCCTCGGAGTCACCTAGTGCAG,4150 fluorescence intensity (a.u.)
15,TTAATTAAAATTAAAACGATGTGACGGAAAGGTTACTCCCCGGAGTCACCTAGTGCAG,26800 fluorescence intensity (a.u.)
16,CACCAGTGATTAGCTTGCCAGAGTGTCCAATCATATCGAACGGAGTCACCTAGTGCAG,23700 fluorescence intensity (a.u.)
17,AGTATAATTATACTATATTTAGACTTTCCCAAGCCAGTTACGGAGTCACCTAGTGCAG,10400 fluorescence intensity (a.u.)
18,ATGATTATGTATTATACTCCCTCCGTTTCACAATATAAGTCGGAGTCACCTAGTGCAG,18300 fluorescence intensity (a.u.)
19,TATGGTTGTAATTGGTTGAGATAATATAACAAGTGATGAACGGAGTCACCTAGTGCAG,11700 fluorescence intensity (a.u.)
20,ACTGATTTTGCTTCCCTTCACAAATCACAACCCTAACTACCGGAGTCACCTAGTGCAG,16900 fluorescence intensity (a.u.)
21,TACTAAATTAGGCTATGGGTGGATGAGTGCTGAAAGTTATCGGAGTCACCTAGTGCAG,7240 fluorescence intensity (a.u.)

row,Sequence,binding signal
1,TGTGATGAACAATTAGCATATGAGATTATCGGTTTTAATACGGAGTCACCTAGTGCAG,11600 fluorescence intensity (a.u.)
2,AGCTTAATGTTCACTTGACTAATTAGTTCATTATTCCACACGGAGTCACCTAGTGCAG,21900 fluorescence intensity (a.u.)
3,GCTAATGGGATGTACCATCTCAAGCCTTTGGACGGTAATGCGGAGTCACCTAGTGCAG,4690 fluorescence intensity (a.u.)
4,TCCTTGCACAATCATTATTCCCTTTCTTGCTTACTTTCTTCGGAGTCACCTAGTGCAG,3220 fluorescence intensity (a.u.)
5,ATGTCATCCAATCATACACTGTACGCGCACACACACATGACGGAGTCACCTAGTGCAG,6740 fluorescence intensity (a.u.)
6,GCGTTAACTACTTTAATTGTGACATTTATCCCTATTTATACGGAGTCACCTAGTGCAG,11800 fluorescence intensity (a.u.)
7,GGCAGTATAATTGAACGATGATATCGTACAATTCTTCCATCGGAGTCACCTAGTGCAG,16800 fluorescence intensity (a.u.)
8,CTAAATTAATTTTCATATAGAATCTTGAAATGTTCAATATCGGAGTCACCTAGTGCAG,20900 fluorescence intensity (a.u.)
9,AATGGTTGTGATTATGTTTCTCGTGCCAAATCTGTTCGCTCGGAGTCACCTAGTGCAG,3400 fluorescence intensity (a.u.)
10,TCTGAATTATTCTATTACTGATATGTGGCAACTAATTATTCGGAGTCACCTAGTGCAG,6630 fluorescence intensity (a.u.)
11,AATAATTAGAAATGTCAAGTTTCACTACATTCTATAAGCCCGGAGTCACCTAGTGCAG,41500 fluorescence intensity (a.u.)
12,TTTCAATATAATATTTAATTATGAGAACTTCTGATCGAGTCGGAGTCACCTAGTGCAG,8920 fluorescence intensity (a.u.)
13,ATATATTTTGATAATATGATTGTTGTGTTGAAAATACTAACGGAGTCACCTAGTGCAG,3700 fluorescence intensity (a.u.)
14,CGAGCTTTGATTGTTTGTTAGTAGTAGTAATTTTCTCATGCGGAGTCACCTAGTGCAG,32000 fluorescence intensity (a.u.)
15,ACGAGCACTGGTGATTTACCTGATTGGCCGGCCGATTGCTCGGAGTCACCTAGTGCAG,22300 fluorescence intensity (a.u.)
16,TGTAAATTATATGGTGTATAAATACCGACGTGTCTAGACCCGGAGTCACCTAGTGCAG,22700 fluorescence intensity (a.u.)
17,TTGATTGATCTTCGAACTTTAAACTTAGGCTGTGTTTAGTCGGAGTCACCTAGTGCAG,44400 fluorescence intensity (a.u.)
18,AATGATTATTCTACTTTCCAATCGCCATTCCGGGAAAGCTCGGAGTCACCTAGTGCAG,25400 fluorescence intensity (a.u.)
19,ACAAATTTTGCATAATCTCATCCTTGTGTACTTGAGCCTGCGGAGTCACCTAGTGCAG,6460 fluorescence intensity (a.u.)
20,CAACCAACCACCAGAGGTGATTGACGAAGGATCGAGATCGCGGAGTCACCTAGTGCAG,23600 fluorescence intensity (a.u.)
21,TATGATGGTCCAATTAAGCTTGAGATCGATAGCGAGCTATCGGAGTCACCTAGTGCAG,5490 fluorescence intensity (a.u.)
